Measurements published in US20180194841A1 (Regeneron, published 2018).

How the values were obtained:
[1] = biological target: T1, human CD20 (on Raji cells, CD3-, CD20+ human B-cell line; on B16F10.9/CD20 cells) (human, UniProt P11836 1-297); assay: cell-based or functional assay
T1 sequence (looked up): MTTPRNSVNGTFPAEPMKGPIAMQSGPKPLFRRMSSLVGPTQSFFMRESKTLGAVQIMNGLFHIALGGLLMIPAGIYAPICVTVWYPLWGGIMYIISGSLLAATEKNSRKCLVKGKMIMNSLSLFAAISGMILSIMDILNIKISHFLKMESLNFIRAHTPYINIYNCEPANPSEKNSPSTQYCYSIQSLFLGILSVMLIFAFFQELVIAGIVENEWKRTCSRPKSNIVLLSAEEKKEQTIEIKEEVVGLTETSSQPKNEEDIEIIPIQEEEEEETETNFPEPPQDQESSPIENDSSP

[2] = biological target: T1, human CD20 (on Raji cells, CD3-, CD20+ …); assay: cell-based or functional assay; remark: listed apart in the source
[3] = biological target: cynomolgus CD3 (on cynomolgus T cells from PBMCs, "mkT cells") (cynomolgus, UniProt Q95LI5 22-198; Q95LI8 22-171; Q95LI7 23-181); assay: FACS, serially diluted antibody on cynomolgus T cells (CD2+CD4+ gate of PBMCs)
Chain of UniProt Q95LI5 (Q95LI5 22-198, chain 1 of 3): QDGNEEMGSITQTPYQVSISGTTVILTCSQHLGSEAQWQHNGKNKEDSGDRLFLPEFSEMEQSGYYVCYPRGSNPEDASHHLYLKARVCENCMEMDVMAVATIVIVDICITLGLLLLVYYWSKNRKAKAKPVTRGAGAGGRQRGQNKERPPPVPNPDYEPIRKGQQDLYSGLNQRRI
Chain of UniProt Q95LI5 (Q95LI8 22-171, chain 2 of 3, further chain): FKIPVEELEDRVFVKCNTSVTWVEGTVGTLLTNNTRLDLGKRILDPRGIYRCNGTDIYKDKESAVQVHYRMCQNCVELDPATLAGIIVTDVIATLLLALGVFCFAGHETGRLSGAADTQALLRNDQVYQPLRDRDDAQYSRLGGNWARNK
Chain of UniProt Q95LI5 (Q95LI7 23-181, chain 3 of 3, further chain): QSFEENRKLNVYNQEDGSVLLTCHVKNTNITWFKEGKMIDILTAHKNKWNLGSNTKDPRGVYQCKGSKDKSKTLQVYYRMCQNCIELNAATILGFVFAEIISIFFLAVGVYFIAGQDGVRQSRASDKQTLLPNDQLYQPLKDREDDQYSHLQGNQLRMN
Protocol: (§1) FACS data was acquired using the following protocol: Cells at 2×10⁵ per well were incubated with serially diluted antibodies for 30 min on ice. Post incubation, cells were washed and appropriate secondary (Jurkat, RAJI cells) or cocktail of secondary antibodies (for cyno PBMC) was added and incubated for an additional 30 minutes. After incubation, cells were washed, re-suspended in cold PBS containing 1% BSA and analyzed by flow cytometry on a BD FACS Canto II. Jurkat and Raji cells were gated by side and forward scatters, while cynomolgus T cells were also gated in a CD2+CD4+ population. The EC₅₀s for cell binding titration were determined using Prism software with values calculated using a 4-parameter non-linear regression analysis.

[4] = biological target: T1, human CD20 (on Raji cells, CD3-, CD20+ …); assay: FACS, serially diluted antibody on Raji cells (CD3-, CD20+)
Protocol: as §1

[5] = biological target: T1, human CD20 (on Raji cells, CD3-, CD20+ …); assay: cell-based or functional assay; remark: listed apart in the source
[6] = biological target: T2, human CD3 (on Jurkat cells, CD3+, CD20- human T-cell line; on human T cells) (human, UniProt P07766; P04234; P09693; P20963); assay: FACS, serially diluted antibody on Jurkat cells (CD3+, CD20-)
Chain of UniProt P07766 (P07766 23-207, chain 1 of 4): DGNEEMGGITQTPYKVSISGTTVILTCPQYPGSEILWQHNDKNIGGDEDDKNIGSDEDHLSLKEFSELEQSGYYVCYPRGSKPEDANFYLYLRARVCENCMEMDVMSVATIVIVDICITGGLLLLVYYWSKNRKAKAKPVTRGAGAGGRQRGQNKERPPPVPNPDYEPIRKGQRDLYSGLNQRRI
Chain of UniProt P07766 (P04234 22-171, chain 2 of 4, further chain): as the sequence (Q95LI8 22-171, chain 2 of 3, further chain) above, with V5I, K15N, V20I, T32S, N33D, N34I, A64T, N74S, L83V, R141H counted along it
Chain of UniProt P07766 (P09693 23-182, chain 3 of 4, further chain): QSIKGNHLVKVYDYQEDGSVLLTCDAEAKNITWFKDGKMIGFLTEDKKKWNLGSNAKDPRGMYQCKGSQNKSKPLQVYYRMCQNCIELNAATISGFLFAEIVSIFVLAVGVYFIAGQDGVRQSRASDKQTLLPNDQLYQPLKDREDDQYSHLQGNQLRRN
Chain of UniProt P07766 (P20963 22-164, chain 4 of 4, further chain): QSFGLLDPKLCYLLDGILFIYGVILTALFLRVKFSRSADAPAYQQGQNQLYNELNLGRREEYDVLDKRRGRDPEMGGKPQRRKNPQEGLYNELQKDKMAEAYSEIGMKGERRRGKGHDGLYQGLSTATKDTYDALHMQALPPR
T2 construct: whole, on cells; SP34 is said to react with the epsilon chain
Protocol: as §1

EC50 [3]: 8740 nM
EC50 [4]: 59.9 nM
EC50 [6]: 38.5 nM
B1: (Control) Antibody 4: CD3×CD20 antibody-wild-type Fc (wtFc) (bispecific antibody)
heavy 1: EVQLVESGGGLVQPGRSLRLSCVASGFTFNDYAMHWVRQAPGKGLEWVSVISWNSDSIGYADSVKGRFTISRDNAKNSLYLQMHSLRAEDTALYYCAKDNHYGSGSYYYYQYGMDVWGQGTTVTVSS[human IgG1 constant region not written out]
heavy 2: EVQLVESGGGLVQPGRSLRLSCAASGFTFDDYTMHWVRQAPGKGLEWVSGISWNSGSIGYADSVKGRFTISRDNAKKSLYLQMNSLRAEDTALYYCAKDNSGYGHYYYGMDVWGQGTTVTVAS[human IgG1 constant region with changes not written out]
light: EIVMTQSPATLSVSPGERATLSCRASQSVSSNLAWYQQKPGQAPRLLIYGASTRATGIPARFSGSGSGTEFTLTISSLQSEDFAVYYCQHYINWPLTFGGGTKVEIKRTVAAPSVFIFPPSDEQLKSGTASVVCLLNNFYPREAKVQWKVDNALQSGNSQESVTEQDSKDSTYSLSSTLTLSKADYEKHKVYACEVTHQGLSSPVTKSFNRGEC
notes: Same variable regions as Antibody 1 and Antibody 2, wild-type IgG1 CH; also called Control 4 (Anti-CD3 × CD20, wild-type CH); Control Ab 4
% Survival B16F10.9/CD20 cells [M] (EC50, FACS, naive human PBMC effectors, 48 h) [1]: 1.28e-11 M
Raji Cytotoxicity Activated Human T-cells [M] (EC50, calcein release) [2]: 1.57e-11 M
Raji Cytotoxicity Activated Monkey T-cells [M] (EC50, calcein release) [2]: 1.73e-12 M
Raji Cytotoxicity Human T-cells [M] (EC50, calcein release) [5]: 5.63e-11 M
Raji Cytotoxicity Monkey T-cells [M] (EC50, calcein release) [5]: 1.27e-12 M
